# PubChem BioAssay (NCATS)
# The shares of active, inactive and inconclusive entries below differ from those in the screen. A call without a number means that no potency is given here. For part of these data: Where the call is inconclusive, the potency comes from a doubtful curve fit. Activity calls are given as the source filed them. Unless noted, calls follow the shape of the dose curve; as a rule, active = well fitted curve in the direction sought with a large enough effect; inconclusive = small, poorly fitted or top-dose-only effect, or another doubt; inactive = no such curve, though single readings can be large; an effect the other way counts as inactive or inconclusive.
# Assays:
# [1] = qHTS of pediatric cancer cell lines to identify multiple opportunities for drug repurposing: Primary screen for DAOY cells (AID 1347090); also: nearly all actives have a fitted effect of over 55% in size
# Procedure, shortened: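 Cell viability, CellTiter-Glo luminescence; 500-1,000 cells/well, 8- or 11-point titration, 48 h compound exposure at 37 degrees C, 5% CO2. Controls: DMSO neutral, bortezomib 2.3 µM final as positive.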
# [2] = qHTS of pediatric cancer cell lines to identify multiple opportunities for drug repurposing: Primary screen for OHS-50 cells (AID 1347103); details: OHS-50 osteosarcoma viability, CellTiter-Glo luminescence, 48 h; series mostly up to 57.3 µM; also: potency is read from the fitted curve at half-maximal effect; nearly all actives have a fitted effect of over 40% in size
# Procedure, shortened: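 Cells (500-1,000/well) rested 5 h, then received compounds for 48 h; metabolically active cells were measured by CellTiter-Glo luminescence. Final concentrations spanned up to 46 µM (MIPE, 11-point) or 0.59 nM-46 µM (NPC, 8-point) in primary screens, 11-point in follow-ups.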
# [3] = A High-Content qHTS Against Drug Library for the Identification of Small Molecules that Inhibit DYT1 Early Onset Primary Dystonia-Associated Cell Pathology (AID 1645839; calls by dose curve)
# Procedure, shortened: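 In this high-content image screen, delE TorsinA mislocalization in inducible Flp-In 293 cells is scored as %pathology, with cell count serving as the counterscreen. Compound exposure lasts 48 h under tetracycline induction in reduced-serum medium.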
# Es-2 = test: Primary qHTS to identify gynecologic anti-cancer compounds using libraries of approved drugs and bioactive compounds (AID 1345084); details: Gynecologic cancer cell panel viability, ATPlite luminescence, 48 h; series mostly up to 57.5 µM; also: nearly all actives have a fitted effect of over 55% in size; also: potency is read from the fitted curve at half-maximal effect
# Procedure, shortened: (§1)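 Luminescence from the ATPlite ATP-monitoring reagent indicates viable cell number; lower signal means cytotoxicity. Cells received compound 16 h after seeding and were exposed for 48 h across five concentrations.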
# Tov112D = test: as above; details: Gynecologic cancer cell panel viability, ATPlite luminescence, 48 h; series mostly up to 57.5 µM
# Procedure, shortened: as §1
# [4] = Drug repurposing screens with cells derived from glioblastoma tumor samples (AID 1345199); details: GBM patient neurospheres viability, ATP luminescence, 48 h; Potency: tumour line A unless noted; series mostly up to 46 µM; also: potency is read from the fitted curve at half-maximal effect; nearly all actives have a fitted effect of over 40% in size
# Procedure, shortened: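 Four patient lines of CD133+ GBM neurospheres were screened at several concentrations; hits were retested in those lines plus three slower-growing GBM lines, using 48-hour treatment and ATP-based viability.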
# [5] = system: Zika virus NS2B-NS3 protease (unlinked complex); test: Primary screen GU Rhodamine qHTS for Zika virus inhibitors: Unlinked NS2B-NS3 protease assay (AID 1347159); details: Recombinant ZIKV NS2B-NS3 protease, Rhodamine110 substrate fluorescence; series mostly up to 107 µM; also: potency is read from the fitted curve at half-maximal effect; nearly all actives have a fitted effect of over 60% in size
# Procedure, shortened: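 Compounds, tested up to 114 microM, were incubated for 15 minutes with 25 nM unlinked NS2B-NS3 protease at pH 8.0. Cleavage of 1.5 microM Rhodamine110 substrate was then followed by fluorescence for 15 minutes.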
# SKOV3 = test: Primary qHTS to identify gynecologic anti-cancer compounds using libraries of approved drugs and bioactive compounds (AID 1345084); details: Gynecologic cancer cell panel viability, ATPlite luminescence, 48 h; series mostly up to 57.5 µM; also: nearly all actives have a fitted effect of over 55% in size; also: potency is read from the fitted curve at half-maximal effect
# Procedure, shortened: as §1
# [6] = Primary fluorescence-based thiol-reactive (MSTI) qHTS assay for identification of artifact compounds. (AID 1845221);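 also: potency is read from the fitted curve at half-maximal effect; thiol-reactive compounds lower the probe fluorescence signal; nearly all actives have a fitted effect of over 65% in size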
# Procedure, shortened: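 Compounds were incubated 1 h at room temperature in the dark with the MSTI probe (4 uM) in PBS pH 7.4, 2% DMSO. Signals were normalized between Acetyl-MSTI and MSTI.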
# HeLa = test: Primary qHTS to identify gynecologic anti-cancer compounds using libraries of approved drugs and bioactive compounds (AID 1345084); details: Gynecologic cancer cell panel viability, ATPlite luminescence, 48 h; series mostly up to 57.5 µM; also: nearly all actives have a fitted effect of over 55% in size; also: potency is read from the fitted curve at half-maximal effect
# Procedure, shortened: as §1
# PA-1 = test: as above; details: Gynecologic cancer cell panel viability, ATPlite luminescence, 48 h; series mostly up to 57.5 µM
# Procedure, shortened: as §1
# Tags tell the direction and shape of the fitted curve.
structure (smiles),measurement,setting,value
CC(Cc1ccccc1)(NC(=O)CN)c1ccccc1 (configuration not stated),Potency,[1],inactive
same,Potency,[2],"inconclusive: 17.4 µM [cytotoxic, single point]"
same,Potency,[3],inactive
same,Potency,Es-2,inactive
same,Potency,Tov112D,inactive
same,Potency,[4],active: 20 µM
OC[C@H]1O[C@@H](Oc2ccccc2)[C@H](O)[C@@H](O)[C@@H]1O,Potency,[5],"inconclusive: 89.1 µM [inhibitor, single point]"
same,Potency,Es-2,inactive
same,Potency,SKOV3,"inconclusive: 2.51 µM [rising, partial curve, poor fit]"
CC(/C=C/C1=CC2=CC(=O)C(C)(O)C(O)C2=CO1)=C\C(C)CCO (configuration not stated),Potency,[6],"inconclusive: 6.56 µM [inhibitor, partial curve]"
same,Potency,HeLa,inactive
same,Potency,PA-1,inactive
